This is an account of results in article PMC6919601, “Identification of Plasmodium dipeptidyl aminopeptidase allosteric inhibitors by high throughput screening” (PLoS ONE, 2019).

Hit rate of the full screen: of about 110,000 compounds, about 230 (0.21%) showed an effect of 50% or more. This is one part of the list.
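Further: 30 min substrate incubation versus DMSO and 10 µM JCP410 controls.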

Sequence of DPAP1 (Q8IIJ9 whole entry, looked up): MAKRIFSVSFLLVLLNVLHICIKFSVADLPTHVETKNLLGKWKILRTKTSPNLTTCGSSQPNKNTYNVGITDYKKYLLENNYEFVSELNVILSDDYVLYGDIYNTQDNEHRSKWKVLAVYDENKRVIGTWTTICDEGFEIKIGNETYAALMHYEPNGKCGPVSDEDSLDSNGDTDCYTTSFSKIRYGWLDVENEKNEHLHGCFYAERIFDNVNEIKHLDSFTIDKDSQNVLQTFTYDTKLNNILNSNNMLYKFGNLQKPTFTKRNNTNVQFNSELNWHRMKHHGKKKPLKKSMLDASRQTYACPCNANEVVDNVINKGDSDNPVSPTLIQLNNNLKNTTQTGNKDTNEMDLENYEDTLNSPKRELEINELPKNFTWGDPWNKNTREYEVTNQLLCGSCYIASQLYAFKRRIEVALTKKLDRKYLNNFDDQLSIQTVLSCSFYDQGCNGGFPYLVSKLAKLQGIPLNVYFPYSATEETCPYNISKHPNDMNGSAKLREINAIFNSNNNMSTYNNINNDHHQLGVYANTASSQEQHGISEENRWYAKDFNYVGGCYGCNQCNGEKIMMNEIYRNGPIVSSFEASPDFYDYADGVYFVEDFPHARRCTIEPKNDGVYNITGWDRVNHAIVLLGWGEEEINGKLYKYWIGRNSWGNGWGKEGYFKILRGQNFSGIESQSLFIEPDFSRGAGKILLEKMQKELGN

This assay concerns the target DPAP1 (Plasmodium falciparum, UniProt Q8IIJ9). In words: primary screen, percent inhibition; read by cleavage of a fluorogenic dipeptide substrate; higher = more effect of the substance. The arrangement: species or system P. falciparum D10 trophozoite lysates; single well.
As for `CC1CCCN(C(=O)Cn2cnc3c2c(=O)n(C)c(=O)n3C)C1` (stereo not drawn), the “% Inhibition @ 10 uM” value is given as -1.06%. Consider `Nc1c(C(=O)Nc2ccc(S(N)(=O)=O)cc2)sc2nc3c(cc12)CCCCC3`, for which the “% Inhibition @ 10 uM” value was 33.2%. On to `CCN(CC)CC(=O)NC(C)c1ccccc1` (stereo not drawn), for which the “% Inhibition @ 10 uM” value is -3.57%. Consider `CC1CCc2c(sc(NC(=O)c3cc(F)c(F)cc3Cl)c2C(N)=O)C1` (stereo not drawn), for which the “% Inhibition @ 10 uM” value is reported as -7.14%.

For `CCc1ccc(-c2[nH]nc3nc(-c4cccc(OC)c4)cc(C(=O)O)c23)cc1`, the “% Inhibition @ 10 uM” value is -5.11%. With `CCC1CCC(N2CCc3cc(OC)c(OC)cc3C2)CC1` (stereo not drawn), the “% Inhibition @ 10 uM” value is recorded as 1.57%. Regarding `CCOC(=O)N1CCN(C(=O)c2ccc3c(c2)ncn3C2CCCC2)CC1`, the “% Inhibition @ 10 uM” value was -1.34%. Next, `NCC12CC3CC(C1)CC(c1ccc(N)cc1)(C3)C2`: -9.91%; `O=C1NCC2=C1C(c1ccc(Br)cc1)Nc1ccccc1N2` (stereo not drawn): -1.69%. With `CN(CCOC(=O)c1cccs1)Cc1ccccc1`, the “% Inhibition @ 10 uM” value turned out to be 2.38%.

In the case of `Brc1ccc(C2=NN(c3ccccc3)C(c3cccs3)C2)cc1` (stereo not drawn), the “% Inhibition @ 10 uM” value is listed as -6.12%. In the case of `Cc1ccc(OCC(=O)Nc2nc3c(C)cccc3s2)cc1`, the “% Inhibition @ 10 uM” value is listed as -1.88%. Next, `CC(=O)N1CCN(S(=O)(=O)c2ccccc2)C1c1ccccc1` (stereo not drawn): -5.26%. Consider `Cc1cccc([N+]2=C3CCCCN3C(O)(c3ccc(Br)cc3)C2)c1` (stereo not drawn), for which the “% Inhibition @ 10 uM” value amounted to 0.343%. Take `COc1ccc(CCNC(=O)CCS(=O)(=O)c2cccc3nsnc23)cc1OC`: the “% Inhibition @ 10 uM” value was 3.61%. As for `N#CCNC(=O)C(CSCc1ccccc1)CSCc1ccccc1`, the “% Inhibition @ 10 uM” value is 1.35%.

For the molecule `Cc1ccc(Cl)cc1NC(=O)CSc1nc(O)c2ccccc2n1`, the “% Inhibition @ 10 uM” value amounted to 1.27%. Take `COc1ccc(/C=C2\Cc3ccccc3C2=O)cc1OC`: the “% Inhibition @ 10 uM” value is -2.12%.

Take `Cc1ccc(Oc2ccc(NC(=O)C3CCCCC3C(=O)O)cc2)cc1` (stereo not drawn): the “% Inhibition @ 10 uM” value amounted to 2.36%. Take `CCOc1cc(C2C(C(=O)OC)=CN(Cc3ccc(Cl)cc3)C=C2C(=O)OC)ccc1O`: the “% Inhibition @ 10 uM” value is listed as -1.48%.

Take `Cc1sc2c(c1C(=O)O)Nc1cc(Br)ccc1S2`: the “% Inhibition @ 10 uM” value is listed as -3.16%.

As to `Cc1cc2c(cc3c(=O)n(CC(=O)NCc4ccc(OC(C)C)cc4)ncn32)s1`, the “% Inhibition @ 10 uM” value is given as -1.92%. In the case of `CC(C)(C)NC1CCCCC1NS(=O)(=O)c1ccccc1` (stereo not drawn), the “% Inhibition @ 10 uM” value is 1.12%. Then `CCc1nn(CC(=O)N2CCCCCC2)c(=O)c2cc3ccccc3n12`, with 1.38%; and `CCCCNC(=O)CN(c1ccccc1OC)S(C)(=O)=O`, with -5.7%. `O=C(Nc1ccc2c(c1)OCO2)c1ccc(Cl)cc1`: the “% Inhibition @ 10 uM” value is -5.6%. Then `CCCC1=C(C(=O)OCC)C(c2ccccc2Cl)C(C#N)=C(N)O1` (stereo not drawn), with -3.13%; and `COc1cc(C2=N/C(=C/c3cccc4ccccc34)C(=O)O2)cc(OC)c1OC`, with 2.14%. As for `Cc1c(NC(=O)NC2CCCc3ccccc32)sc2nc3n(c(=O)c12)CCC(C)CC3` (stereo not drawn), the “% Inhibition @ 10 uM” value is given as -1.7%.

Take `CC(C)OCCCNc1ncnc2c1cnn2-c1ccc(F)cc1`: the “% Inhibition @ 10 uM” value is recorded as 4.77%. Next, `Cc1ccc(C)c(-c2csc(Nc3ccc(Oc4ccccc4)cc3)n2)c1`: -5.62%; `CC(=O)C1=C(O)C(=O)N(CCc2c[nH]c3ccccc23)C1c1ccc(Br)cc1` (stereo not drawn): 3.21%.

For `CCSc1ncc(Cl)c(C(=O)Nc2nnc(SCc3ccccc3C)s2)n1`, the “% Inhibition @ 10 uM” value is given as -2.85%. For `Cc1cc(C)n2ncc(C#N)c2n1`, the “% Inhibition @ 10 uM” value is 4.74%.

In the case of `CN(C(=O)CSc1nc2cccnc2[nH]1)C1CCCCC1`, the “% Inhibition @ 10 uM” value is -0.0871%. Turning to `CC(=O)N1c2ccccc2C(c2ccccc2)(c2ccccc2)OC1/C=C/c1ccccc1` (stereo not drawn), the “% Inhibition @ 10 uM” value is given as -6.15%. On to `Cc1ccc(SC(C)C(=O)NC2CC2)cc1` (stereo not drawn), for which the “% Inhibition @ 10 uM” value is recorded as -4.12%. On to `CCC(C)NC(=O)Cn1ncn2c(cc3ccccc32)c1=O` (stereo not drawn), for which the “% Inhibition @ 10 uM” value is recorded as 3.29%. As to `COc1ccccc1SC1CC(=O)N(c2ccccc2)C1=O` (stereo not drawn), the “% Inhibition @ 10 uM” value is listed as -2.14%.

For `Cc1ccc(C2NCCc3c2[nH]c2ccccc32)cc1` (stereo not drawn), the “% Inhibition @ 10 uM” value is listed as -2.63%.

`O=S(=O)(c1ccc(F)cc1)c1cnc2cc3c(cc2c1O)OCO3`: the “% Inhibition @ 10 uM” value was -5.25%. Next, `CCOc1ccc(CN2CCC(Cc3ccccc3)CC2)cc1`: -3.56%; `CC1CN(C(=O)c2ccc(COc3ccc4ccccc4c3)o2)CC(C)O1` (stereo not drawn): 0.413%; `O=S(=O)(c1cnc(Cl)c(Br)c1)N1CCCc2ccccc21`: -3.71%. On to `S=C(c1ccc2c(c1)OCO2)N1CCCCC1`, for which the “% Inhibition @ 10 uM” value is -0.436%.

As for `Cc1ccc(-c2cc(C(=O)O)c3ccccc3n2)cc1C`, the “% Inhibition @ 10 uM” value was 3.82%. In the case of `COc1cccc(-c2cc(C(=O)N3CCc4ccccc4C3)[nH]n2)c1`, the “% Inhibition @ 10 uM” value is on record as 0.181%. Take `COCCNC(=O)c1sc2nc(C)cc(C)c2c1-n1cccc1`: the “% Inhibition @ 10 uM” value was -1.08%. Consider `COc1ccc(NC(=O)c2ccncc2)c(OC)c1`, for which the “% Inhibition @ 10 uM” value was 12.1%. For the molecule `Cc1noc2ncnc(N3CCN(c4ccccn4)CC3)c12`, the “% Inhibition @ 10 uM” value is recorded as -1.61%. Then `CC[C@H](NC(=O)[C@@H](Cc1ccccc1Cl)NC1=NS(=O)(=O)c2ccccc21)C(=O)c1nc2ccccc2o1`, with -6.56%. Regarding `O=C(COc1cccc(Cl)c1)NCc1ccc(F)cc1`, the “% Inhibition @ 10 uM” value is recorded as -0.0938%. Next, `CCOCCCNC(=O)Cc1ccc(-n2c(CC)nc3cccnc32)cc1`: 2.15%; `CCN1CCN(CC(=O)c2c(C)[nH]c3ccccc23)CC1`: 3.36%. Then `CC(C)Cn1c(=O)c2ccccc2n2c(CCC(=O)N3CCC(N4CCCCC4)CC3)nnc12`, with 2.6%; and `c1csc(CN2CCc3c([nH]c4ccccc34)C2)c1`, with -3.77%; and `COc1ccc(CNC(=O)CCCc2nnc3n(CC(C)C)c(=O)c4sccc4n23)cc1`, with -1.04%. Then `COc1ccc(C(=O)NC(C)c2ccccc2)cc1Br` (stereo not drawn), with -1.6%.

Consider `CN(C)CCCn1c(N)nc2ccccc21`, for which the “% Inhibition @ 10 uM” value is listed as 1.84%. On to `Cc1ccc(OCCn2c(=N)n(CCO)c3ccccc32)cc1`, for which the “% Inhibition @ 10 uM” value is on record as 1.08%. In the case of `Cc1cc(O)oc2nnc(-c3ccccc3)c1-2`, the “% Inhibition @ 10 uM” value is listed as 0.484%. Turning to `C=CCNC(=O)N[C@@H](CC1CCCCC1)C(=O)NCC#N`, the “% Inhibition @ 10 uM” value turned out to be 1.35%.

As for `O=C(Nc1ccc(S(=O)(=O)N2CCCC2)cc1)c1cccs1`, the “% Inhibition @ 10 uM” value was 0.746%. With `COCCNC(=O)Cn1ncc2c3ccccc3n(Cc3cccc(Cl)c3)c2c1=O`, the “% Inhibition @ 10 uM” value is reported as -1.58%. Regarding `CCCN(CCC)S(=O)(=O)c1ccc(C(=O)Nc2nnc(/N=C/c3cccs3)s2)cc1`, the “% Inhibition @ 10 uM” value is listed as 16.9%. Consider `Cc1onc(-c2ccccc2Cl)c1C(=O)N1CCN(C/C=C/c2ccccc2)CC1`, for which the “% Inhibition @ 10 uM” value is recorded as -2.9%. Take `Cc1cccc(Oc2nc3ccccn3c(=O)c2/C=C(\C#N)C(=O)NC2CCS(=O)(=O)C2)c1C` (stereo not drawn): the “% Inhibition @ 10 uM” value was found to be 2%. Next, `Cc1ccc(C(=O)Nc2nc(-c3nnn(-c4ccc(F)cc4F)c3C)ns2)cc1C`: -2.85%; `COC(=O)c1scc(C)c1NC(=O)C(C)Sc1nc(C)cc(C)c1C#N` (stereo not drawn): 3.72%. For the molecule `CCCC(=O)NC(C)c1ccc(Br)cc1` (stereo not drawn), the “% Inhibition @ 10 uM” value stood at 1.88%.

Consider `Cc1ccccc1Cc1c(C)nc2nc(SCC(=O)NCc3ccccc3)nn2c1C`, for which the “% Inhibition @ 10 uM” value was -2.9%. For `CCOCCCNC(=O)CSCc1nc(-c2ccccc2C)oc1C`, the “% Inhibition @ 10 uM” value was 2.37%. With `O=C(CN1CCCN(Cc2ccc(F)cc2Cl)C1=O)NC1CCCC1`, the “% Inhibition @ 10 uM” value was 0.718%.

`COc1ccc(-c2c(C)nn3c(C)cc(C)nc23)cc1`: the “% Inhibition @ 10 uM” value is listed as -7.54%. `CC(=O)Nc1cccc(NC(=O)c2cc([N+](=O)[O-])ccc2Cl)c1`: the “% Inhibition @ 10 uM” value is on record as -0.192%.

Consider `Cc1nc2c3ccccc3n3c(CCCC(=O)NC4CCN(Cc5ccccc5)CC4)nnc3n2n1`, for which the “% Inhibition @ 10 uM” value is given as 2.04%. Regarding `Cc1ccc(Nc2nc(Cl)nc(Nc3ccc(C)cc3)n2)cc1`, the “% Inhibition @ 10 uM” value turned out to be 4.98%. Consider `CCCCn1c(NCc2cccs2)nc2ccccc21`, for which the “% Inhibition @ 10 uM” value turned out to be 3.93%.

For the molecule `Cc1nc2c(c(C)nn2-c2ccccc2)c(C)c1CCC(=O)NCCCOC(C)C`, the “% Inhibition @ 10 uM” value was -2.45%.

In the case of `O=C(Nc1cccc(Oc2ccccc2)c1)C1CCN(S(=O)(=O)c2cccs2)CC1`, the “% Inhibition @ 10 uM” value came to 1.28%. In the case of `CCC(C)NC(=O)c1ccc(CSCc2ccc(Cl)cc2)o1` (stereo not drawn), the “% Inhibition @ 10 uM” value is listed as -1.34%.

With `Cc1cccc(N2CCN(C(=O)c3ccc4c(c3)OCO4)CC2)c1C`, the “% Inhibition @ 10 uM” value was found to be 1.4%.

Take `O=C(/C=C/c1ccccc1)Nc1nc[nH]n1`: the “% Inhibition @ 10 uM” value was -1.25%.

As to `COc1cc(C2N(c3ccccn3)C(=O)C3CCCN32)cc(OC)c1OC` (stereo not drawn), the “% Inhibition @ 10 uM” value is listed as -2.29%. With `COc1ccccc1C(=O)Nc1ccc2oc(-c3cccc(F)c3)nc2c1`, the “% Inhibition @ 10 uM” value is -2.03%. Then `CC1CCN(S(=O)(=O)c2ccc(NS(=O)(=O)c3cc(Cl)ccc3Cl)cc2)CC1`, with 2.79%.

Turning to `CCN(CC)C(=O)C1CCCN(Cc2ccoc2)C1` (stereo not drawn), the “% Inhibition @ 10 uM” value was found to be 0.708%. For `CC1NC2(CCCCC2)CC(C)(C)c2ccc([N+](=O)[O-])cc21` (stereo not drawn), the “% Inhibition @ 10 uM” value is recorded as -0.274%. With `COCc1cc(C)nc2sc3c(c12)NC(c1ccccc1)NC3=O` (stereo not drawn), the “% Inhibition @ 10 uM” value was -0.703%. In the case of `CCCCCn1c(C)nc2cc(C)c(C)cc21`, the “% Inhibition @ 10 uM” value is -4.71%. On to `CCCCN(C)Cc1ccc(C(=O)OC)cc1`, for which the “% Inhibition @ 10 uM” value is -3.15%. Turning to `Cc1ccc(C)c(NC(=O)CN(c2ccccc2C)S(C)(=O)=O)c1`, the “% Inhibition @ 10 uM” value is listed as -2.44%. Take `Cc1nc2c3ccccc3n3c(CCCC(=O)NCCc4c[nH]c5ccccc45)nnc3n2n1`: the “% Inhibition @ 10 uM” value amounted to 5.09%. Regarding `COc1ccc(CN2CCN(c3ccccc3Cl)CC2)cc1O`, the “% Inhibition @ 10 uM” value is reported as -7.33%. As for `Cc1ccc(NC(=O)COc2cccc(C3C4=C(CCCC4=O)OC4=C3C(=O)CCC4)c2)cc1Cl`, the “% Inhibition @ 10 uM” value worked out at 1.17%. As to `O=C1c2ccc(Br)cc2C(=O)N1CNc1ccc(Cl)cc1`, the “% Inhibition @ 10 uM” value is on record as -3.78%. Then `COCCNC(=O)Cn1nnc2sc3c(c2c1=O)CCC(C)C3` (stereo not drawn), with -2.71%; and `Cc1onc(-c2c(Cl)cccc2Cl)c1C(=O)Nc1ccc2c(c1)NC(=O)CS2`, with -18.8%; and `Cc1ccccc1CSc1nc(=O)c2c(n1C)NC(=O)CC2c1ccc(OC(C)C)cc1` (stereo not drawn), with -4.94%.

With `Cc1cccc(OCCSc2nc3ccccc3n2CCO)c1`, the “% Inhibition @ 10 uM” value was determined as 0.214%. Then `COc1ccc(CCNc2nc3c(c(=O)n(C)c(=O)n3C)n2C)cc1OC`, with 3.35%. As to `O=C1N/C(=C/c2ccc(O)c(Cl)c2)C(=O)N1c1cccc(Cl)c1`, the “% Inhibition @ 10 uM” value is given as -0.333%.
